# From PubChem BioAssay (Tox21)
# “And” between values parts separate entries of the source, which are not always exact repeats. Equal values may be shown once. The inconclusive results got no clear call from the source; some entries with a clear call stand among them for comparison. For part of these data: A potency beside an inconclusive call is a rough fit, not a confirmed value. The source made the active and inactive calls. Unless noted, calls follow the shape of the dose curve; as a rule, active = well fitted curve in the direction sought with a large enough effect in the repeat runs; inconclusive = weak or mixed curves; inactive = no such curve, though single readings can be large; an effect the other way counts as inactive or inconclusive.
# How the values were obtained:
# [1] = qHTS assay to identify small molecule agonists of H2AX (AID 1224845; active = well fitted activation curve with a large enough effect in the signal ratio in the repeat runs, not every such curve was filed as active; inconclusive = weak or mixed curves; the % refers to the signal ratio; as to activation (H2AX phosphorylation): % is scaled to controls: 0 for no effect and ±100 for the full control effect); conditions: CHO-K1 phospho-H2AX Ser139 HTRF, 3 h; activation (H2AX phosphorylation): at 154 µM (top of the series) unless noted
# Summary of the method: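 Phospho-H2AX Ser139 measured by HTRF (ex 320 nm; em 665 and 620 nm) after 24 hr antibody incubation. Compounds, 15 concentrations, 0.76% DMSO, were applied to CHO-K1 cells for 3hr at 37C before lysis.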
# [2] = qHTS assay to identify small molecule agonists of the hypoxia (HIF-1) signaling pathway (AID 1224846; active = well fitted activation curve with a large enough effect in the signal ratio in the repeat runs, not every such curve was filed as active; inconclusive = weak or mixed curves; the % refers to the signal ratio); conditions: HRE-bla ME-180 cells, beta-lactamase ratio, 17 h; activation: at 76.8 µM (top of the series) unless noted
# Summary of the method: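 A low-serum medium (0.5% dialyzed FBS) holding 2,000 HRE-bla ME-180 cells per well is preincubated for 5 hrs, dosed with compounds by pintool, and kept a further 17 hrs at 37C, 5% CO2 before CCF4-AM FRET detection of beta-lactamase.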
# [3] = qHTS RealTime-Glo MT Cell Viability Assay in HepG2 cells - 40 hour (AID 1224870); also: nearly all actives have a fitted effect of over 50% in size
# Summary of the method: (§1)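 Real-time viability: cells seeded at 600 per well together with NanoLuc and cell-permeant prosubstrate, compounds added after 5 h incubation. Luminescence tracked at 0, 8, 16, 24, 32 and 40 h of exposure.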
# [4] = qHTS RealTime-Glo MT Cell Viability Assay in HEK293 cells - 16 hour (AID 1224872); also: nearly all actives have a fitted effect of over 50% in size
# Summary of the method: (§2)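 HEK293 cells seeded with NanoLuc/prosubstrate reagent, rested 5 h at 37 C, then dosed and kept at 37 C up to 40 h. Nonlytic real-time luminescence from viable cells read at 0, 8, 16, 24, 32 and 40 h.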
# [5] = A CellTox Green Cytotoxicity Assay to monitor cytotoxicity in HEK293 cells - 24 hour (AID 1224875); also: nearly all actives have a fitted effect of over 45% in size
# Summary of the method: (§3)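 Fluorescence intensity, read at 0, 8, 16, 24, 32 and 40 h of compound treatment, reflected dye binding to DNA of dead HEK293 cells; compounds (23 nL, DMSO) were added 5 h after plating cells with reagent.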
# [6] = A CellTox Green Cytotoxicity Assay to monitor cytotoxicity in HepG2 cells - 16 hour (AID 1224876); also: nearly all actives have a fitted effect of over 45% in size
# Summary of the method: (§4)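 Using 1536-well format, dye-containing HepG2 suspension was seeded, allowed 5 h at 37 C/5% CO2, dosed by pintool with compounds, positive and negative controls, and imaged for fluorescence across 40 h.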
# [7] = qHTS RealTime-Glo MT Cell Viability Assay in HEK293 cells - 0 hour (AID 1224880); also: nearly all actives have a fitted effect of over 45% in size
# Summary of the method: (§5)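 Viable HEK293 cells reduce a cell-permeant prosubstrate; the product diffuses out and is consumed by NanoLuc in the medium to give light. Compounds went in after a 5 h incubation and plates were read over the treatment course.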
# [8] = A CellTox Green Cytotoxicity Assay to monitor cytotoxicity in HEK293 cells - 32 hour (AID 1224881); also: nearly all actives have a fitted effect of over 40% in size
# Summary of the method: as §3
# [9] = qHTS RealTime-Glo MT Cell Viability Assay in HepG2 cells - 8 hour (AID 1224873); also: nearly all actives have a fitted effect of over 55% in size
# Summary of the method: as §1
# [10] = qHTS RealTime-Glo MT Cell Viability Assay in HEK293 cells - 32 hour (AID 1224868); also: nearly all actives have a fitted effect of over 50% in size
# Summary of the method: as §2
# [11] = qHTS RealTime-Glo MT Cell Viability Assay in HepG2 cells - 32 hour (AID 1224877); also: nearly all actives have a fitted effect of over 55% in size
# Summary of the method: (§6)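 HepG2 cells (600/well) were dispensed with RealTime-Glo reagents, incubated 5 h at 37 °C, then treated with compounds in DMSO for up to 40 h. Nonlytic NanoLuc luminescence reflecting viable cells was read at each stated time point.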
# [12] = A CellTox Green Cytotoxicity Assay to monitor cytotoxicity in HepG2 cells - 40 hour (AID 1224879); also: nearly all actives have a fitted effect of over 40% in size
# Summary of the method: as §4
# [13] = qHTS assay to identify small molecule agonists of H2AX - cell viability counter screen (AID 1224847; calls by dose curve; also: nearly all actives have a fitted effect of over 30% in size)
# Summary of the method: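 For this counter screen, overnight-attached CHO-K1 cells received test compounds (15 concentrations, 0.76% DMSO final); 3 hr later at 37C, CellTiter-Glo reagent was added and luminescence recorded after 30 min at room temperature.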
# [14] = qHTS assay to identify small molecule antagonists of the estrogen related receptor (ERR) signaling pathway from Tox21 library (AID 1224848); also: nearly all actives have a fitted effect of over 50% in size
# Summary of the method: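 Antagonist-mode screen of the Tox21 10K library in an NTP-provided ERR reporter cell line; 18 h compound exposure at 37 C, luminescence measured with ONE-Glo.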
# [15] = qHTS RealTime-Glo MT Cell Viability Assay in HEK293 cells - 40 hour (AID 1224874); conditions: RealTime-Glo luminescence; max response: stronger effect = lower value; also: nearly all actives have a fitted effect of over 50% in size
# Summary of the method: as §5
# [16] = A CellTox Green Cytotoxicity Assay to monitor cytotoxicity in HEK293 cells - 40 hour (AID 1224871); also: nearly all actives have a fitted effect of over 45% in size
# Summary of the method: as §3
# [17] = A CellTox Green Cytotoxicity Assay to monitor cytotoxicity in HepG2 cells - 24 hour (AID 1224878); also: nearly all actives have a fitted effect of over 45% in size; as to Cytotoxicity: % is scaled to controls: 0 for no effect and ±100 for the full control effect
# Summary of the method: as §4
# [18] = qHTS RealTime-Glo MT Cell Viability Assay in HepG2 cells - 24 hour (AID 1224867); also: nearly all actives have a fitted effect of over 50% in size
# Summary of the method: as §6
# Potency is read from the fitted curve at half-maximal effect; tags tell the direction and shape of the fitted curve or compound fluorescence and quenching.
smiles,measurement,setting,value
CCCCCCCCCCCC(=O)NCCCN(C)C,Potency,[1],"inconclusive: 113 µM [activator, single point]"
same,Potency,[2],inconclusive: 49 µM
same,Potency,[3],active: 38.9 µM
same,Potency,[4],active: 49 µM
same,Potency,[5],active: 54.9 µM
same,Potency,[6],active: 43.6 µM
same,Potency,[7],"inconclusive: 49 µM [rising, partial curve]"
same,Potency,[8],active: 54.9 µM
CCOC(=O)O[C@H](C)OC(=O)c1ccc2c(c1)cc(C(=O)NC1CCN(C(C)C)CC1)n2Cc1cc(-c2ccc(Cl)s2)on1,Potency,[1],active: 42 µM
same,Potency,[2],"inconclusive: 32.4 µM [falling, partial curve]"
same,Potency,[9],active: 16.2 µM
same,Potency,[5],active: 20.4 µM
same,Potency,[8],active: 18.2 µM
Cc1cc(Nc2ccc(O)cc2)ccc1N,Potency,[1],"inconclusive: 56.4 µM [falling, partial curve]"
same,Potency,[2],inconclusive: 48.8 µM [partial curve]
same,Potency,[10],active: 19.4 µM
same,Potency,[9],active: 43.5 µM
same,Potency,[5],"inconclusive: 54.7 µM [activator, single point]"
same,Potency,[11],"inconclusive: 54.7 µM [cytotoxic, single point]"
same,Potency,[12],"inconclusive: 54.7 µM [activator, single point]"
same,Potency,[7],"inconclusive: 13.7 µM [falling, full curve]"
Nc1ccc(O)c(C(=O)O)c1,Potency,[1],"inconclusive: 28.1 µM [cytotoxic] and inconclusive: 50.5 µM [cytotoxic, partial curve] and inconclusive: 19.6 µM [cytotoxic]"
same,Potency,[13],inactive
c1ccc2cc3ccccc3cc2c1,Potency,[1],"inconclusive: 46.4 µM [fluorescent] and inconclusive: 101 µM [fluorescent, partial curve]"
same,Potency,[2],"inconclusive: 56.7 µM [activator, single point]"
same,Potency,[7],"inconclusive: 40.1 µM [rising, partial curve]"
Cc1ccc(S(=O)(=O)Oc2ccc(N=Nc3ccc(-c4ccc(N=Nc5c(O)ccc6cc(S(=O)(=O)O)cc(S(=O)(=O)O)c56)c(C)c4)cc3C)cc2)cc1,Potency,[1],inconclusive: 127 µM
same,Potency,[13],active: 45.2 µM and active: 29.3 µM
same,Potency,[14],"inconclusive: 39.8 µM [inhibitor, partial curve, poor fit]"
same,Potency,[10],"inconclusive: 55.2 µM [cytotoxic, partial curve, poor fit]"
same,Potency,[3],"inconclusive: 12.3 µM [falling, partial curve] and inconclusive: 12.7 µM [falling, partial curve]"
same,Potency,[4],"inconclusive: 55.2 µM [cytotoxic, single point]"
same,Potency,[15],"inconclusive: 55.2 µM [cytotoxic, partial curve, poor fit]"
same,Potency,[11],"inconclusive: 12.3 µM [cytotoxic, partial curve] and inconclusive: 11.3 µM [cytotoxic, full curve]"
CN(C)CCCN1c2ccccc2Sc2ccc(Cl)cc21,Potency,[1],"inconclusive: 142 µM and inconclusive: 61.9 µM [activator, single point]"
same,Potency,[13],"inconclusive: 127 µM [cytotoxic, single point] and active: 55.2 µM"
same,Potency,[14],"inconclusive: 33.5 µM [inhibitor, single point]"
same,Potency,[10],active: 24.5 µM and active: 23.9 µM
same,Potency,[3],active: 30.9 µM and active: 23.9 µM
same,Potency,[16],"active: 43.6 µM and inconclusive: 26.8 µM [activator, single point]"
same,Potency,[5],"active: 49 µM and inconclusive: 26.8 µM [activator, single point]"
same,Potency,[12],active: 24.5 µM and active: 21.3 µM
same,Potency,[8],"active: 43.6 µM and inconclusive: 26.8 µM [activator, single point]"
CCN(CC)c1ccc2c(C)cc(=O)oc2c1,activation (H2AX phosphorylation),[1],inconclusive: 14.5%
same,Potency,[2],active: 44 µM and active: 43.6 µM
same,Potency,[10],"inconclusive: 38.9 µM [cytotoxic, partial curve]"
same,Potency,[4],"inconclusive: 43.6 µM [cytotoxic, partial curve]"
same,Potency,[15],"inconclusive: 38.9 µM [cytotoxic, partial curve]"
COc1ccc(-n2nc(CCC(=O)N(C)O)cc2-c2ccc(Cl)cc2)cc1,Potency,[1],inconclusive: 55.2 µM [activator]
same,Potency,[2],"inconclusive: 21.3 µM [falling, partial curve]"
same,Potency,[10],"inconclusive: 23.9 µM [cytotoxic, single point]"
same,Potency,[15],"inconclusive: 26.8 µM [cytotoxic, single point]"
same,Potency,[6],inactive
same,Potency,[17],"inconclusive: 26.8 µM [activator, single point]"
same,Potency,[12],"inconclusive: 26.8 µM [activator, single point]"
CCN=C1C=CC(=C(c2ccc(N(CC)CC)cc2)c2ccc(N(CC)CC)cc2)c2ccccc21,Potency,[1],"inconclusive: 25.1 µM [cytotoxic, full curve]"
same,Potency,[2],"inconclusive: 21.7 µM [falling, full curve]"
same,Potency,[18],active: 17.3 µM
same,Potency,[9],active: 19.4 µM
same,Potency,[12],active: 19.4 µM
same,Potency,[7],"inconclusive: 48.7 µM [falling, single point]"
Oc1c(Br)cc(Br)c2cccnc12,Potency,[1],active: 55.2 µM
same,Potency,[2],"inconclusive: 1.34 µM [falling, full curve]"
same,Potency,[10],"inconclusive: 23.9 µM [cytotoxic, partial curve]"
same,Potency,[16],"inconclusive: 21.3 µM [activator, single point]"
same,Potency,[17],inactive
O=c1n(CC2CO2)c(=O)n(CC2CO2)c(=O)n1CC1CO1 (configuration not stated),Potency,[1],"active: 112 µM and inconclusive: 56.6 µM [activator, partial curve, poor fit]"
same,Potency,[2],"inconclusive: 10.9 µM [rising, partial curve, poor fit]"
same,Potency,[9],inactive
same,Potency,[15],"inconclusive: 2.45 µM [cytotoxic, full curve]"
same,Potency,[12],"inconclusive: 54.9 µM [activator, single point]"
CSc1c(Cl)c(Cl)c(Cl)c(Cl)c1Cl,activation (H2AX phosphorylation),[1],inconclusive: 9.55%
same,Potency,[2],inconclusive: 54.6 µM
same,Potency,[10],"inconclusive: 54.6 µM [cytotoxic, partial curve, poor fit]"
same,Potency,[4],"inconclusive: 38.7 µM [cytotoxic, partial curve]"
same,Potency,[9],inactive
same,Potency,[5],"inconclusive: 38.7 µM [activator, partial curve, poor fit]"
same,Potency,[17],"inconclusive: 54.6 µM [activator, single point]"
same,Potency,[12],"inconclusive: 54.6 µM [activator, single point]"
same,Potency,[8],"inconclusive: 48.7 µM [activator, partial curve, poor fit]"
CC/C(=C(/c1ccc(O)cc1)c1ccc(OCCN(C)C)cc1)c1ccccc1,Potency,[1],inconclusive: 74.6 µM [activator]
same,Potency,[2],inconclusive: 36.2 µM [single point]
same,Potency,[15],active: 8.12 µM
same,Potency,[5],active: 25.7 µM
same,Potency,[6],active: 25.7 µM
same,Potency,[11],active: 14.4 µM
same,Potency,[12],active: 12.9 µM
CCC(C)Nc1ccc(NC(C)CC)cc1 (configuration not stated),Potency,[1],"inconclusive: 103 µM [falling, partial curve]"
same,Potency,[2],"inconclusive: 14.1 µM [falling, full curve]"
same,Potency,[3],active: 17.7 µM
same,Potency,[5],active: 17.7 µM
same,Potency,[6],active: 35.3 µM
same,Potency,[17],active: 22.3 µM
same,Potency,[7],active: 19.9 µM
same,Potency,[8],active: 12.5 µM
CC(C)=CCNc1ncnc2c1ncn2[C@@H]1O[C@H](CO)[C@@H](O)[C@H]1O,Potency,[1],"inconclusive: 61.9 µM [activator, single point]"
same,Potency,[2],"inconclusive: 16.9 µM [falling, partial curve]"
same,Potency,[10],"inconclusive: 23.9 µM [cytotoxic, partial curve, poor fit]"
same,Potency,[15],"inconclusive: 23.9 µM [cytotoxic, partial curve]"
same,Potency,[6],"inconclusive: 30.1 µM [activator, single point]"
same,Potency,[17],"inconclusive: 26.8 µM [activator, single point]"
same,Potency,[12],"inconclusive: 26.8 µM [activator, single point]"
